This is an account of results in patent US20250375499A1 (FLAGSHIP PIONEERING INNOVATIONS VII, published 2025).

“And” between values parts separate entries of the source, which are not always exact repeats. Identical values can stand only once.

As usually defined, the EC50 (read off the curve) is the midpoint of the concentration-response curve. In general, Kd refers to the equilibrium constant for the complex coming apart. High values mean lower affinity, low ones higher affinity. By koff is commonly meant the rate constant with which the complex falls apart. The term kon denotes a measure of how fast the partners come together. As a reminder, the EC50 is the concentration needed to bring the measured effect to its halfway point.

Experiment [1] concerns the target T1, recombinant human LIGHT (Acro Bio LIT-H5242) (human, UniProt O43557 83-240, limits assumed).
T1 construct: Bought protein; also called hLIGHT; Tumor Necrosis Factor Ligand Superfamily Member 14
The experiment is described as follows: ELISA: plate coated with recombinant human LIGHT (2 µg/mL), Fc-tagged protein titrated 3-fold from 10 nM, anti-human Fc HRP, OD 450 nm background subtracted. (In an ELISA, binding on a coated surface is turned into a signal by an enzyme label.)

Experiment [2] deals with T2, recombinant human TL1A (Acro Bio TLA-H5244), plate bound (human, UniProt O95150 72-251, limits assumed).
T2 construct: Bought protein; also called hTL1A; Tumor Necrosis Factor Ligand Superfamily Member 15
T2 sequence: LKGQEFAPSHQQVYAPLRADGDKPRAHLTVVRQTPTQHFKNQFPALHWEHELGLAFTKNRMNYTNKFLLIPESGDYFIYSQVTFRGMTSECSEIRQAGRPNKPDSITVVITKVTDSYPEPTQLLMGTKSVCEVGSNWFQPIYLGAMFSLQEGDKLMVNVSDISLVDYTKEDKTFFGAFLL
The experiment is described as follows: ELISA: plate coated with recombinant human TL1A (2 µg/mL), Fc-tagged protein titrated 2-fold from 20 nM, anti-human Fc HRP, four-parameter fit.

Experiment [3] deals with T3, TL1A monomer (Acro Biosystems TLA-H5246) (human, UniProt O95150 72-251, limits assumed).
T3 construct: Bought protein; also called Monomer TL1A; monomeric human TL1A
T3 sequence: T2 sequence
The experiment is described as follows: SPR Biacore T200, IIFP captured by anti-human Fc, TL1A as analyte, 1:1 fit, 25 C. (Surface plasmon resonance follows binding to a sensor surface in real time, without labels.)

Experiment [4] has as its target T4, TL1A trimer (Acro Biosystems TLA-H5243) (human, UniProt O95150 72-251).
T4 construct: Bought protein; also called Trimer TL1A; trimeric human TL1A
T4 sequence: T2 sequence
Described as above.

Experiment [5] has as its target T5, recombinant human TNFα (Acro Bio TNA-H5228) (human, UniProt P01375 part only).
T5 construct: Bought protein; also called hTNFα
The experiment in a line: ELISA: plate coated with recombinant human TNFα (2 µg/mL), Fc-tagged protein titrated 3-fold from 10 nM, anti-human Fc HRP, OD 450 nm background subtracted.

Experiment [6] deals with T2, recombinant human TL1A (Acro Bio …). The experiment is described as follows: ELISA: plate coated with recombinant human TL1A (2 µg/mL), Fc-tagged protein titrated 3-fold from 10 nM, anti-human Fc HRP, OD 450 nm background subtracted.
In experiment [7] the target is T6, recombinant human FASL (Acro Bio HAL-H5241) (human, UniProt P48023 134-281, limits assumed).
T6 construct: Bought protein; also called hFASL; FAS Ligand
T6 sequence: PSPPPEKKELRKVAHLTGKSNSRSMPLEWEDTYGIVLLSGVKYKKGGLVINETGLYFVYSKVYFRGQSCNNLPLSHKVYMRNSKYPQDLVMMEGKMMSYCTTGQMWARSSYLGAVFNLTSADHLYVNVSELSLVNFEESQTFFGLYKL
The experiment is described as follows: ELISA: plate coated with recombinant human FASL (2 µg/mL), Fc-tagged protein titrated 3-fold from 10 nM, anti-human Fc HRP, OD 450 nm background subtracted.

The target in experiment [8] is T2, recombinant human TL1A (Acro Bio …). The experiment in a line: ELISA, plate-coated recombinant hTL1A (Example 3).

T1 sequence (O43557 83-240 limits assumed): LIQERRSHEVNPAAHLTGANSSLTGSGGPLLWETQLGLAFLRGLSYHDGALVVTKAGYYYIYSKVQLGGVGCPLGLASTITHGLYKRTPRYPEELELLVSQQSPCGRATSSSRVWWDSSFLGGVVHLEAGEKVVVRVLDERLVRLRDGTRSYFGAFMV
T5 sequence (P01375 77-233 limits assumed): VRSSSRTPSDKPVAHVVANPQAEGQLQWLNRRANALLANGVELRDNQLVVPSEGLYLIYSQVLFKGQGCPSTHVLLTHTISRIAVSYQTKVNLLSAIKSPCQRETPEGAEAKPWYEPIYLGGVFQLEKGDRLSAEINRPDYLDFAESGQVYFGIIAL

B1: Immunoreceptor inhibitory fusion protein 2 (IIFP-2) (Fc fusion)
chain: [human IgG4 Fc with S228P F234A L235A (EU numbers) and a few adjoining residues left out]GGGGGGGSGGGGSGGGGSSTYRVRSSGLTCSTCPPGTHKERDCSLNTETICKACGEGEYTAHNNSLPKCLACKSCFNATEIETKSCDPTSDTICACREGYSINNLGECN
notes: Mature form without the hIL-2 signal peptide
In the case of B1, the binding result in experiment [1], in experiment [5] and in experiment [7] was “no binding (tested: 10 nM (LOG[Dose] 1))” throughout. Moreover, the “EC50 (read off the curve)” value in experiment [2] and in experiment [6] was approximately 0.2 nM throughout. In addition, the Kd is > 0.034 nM and < 0.073 nM in experiment [3]; > 0.011 nM and < 0.015 nM in experiment [4]. Also, the koff in experiment [3] was > 4.2e-05 s⁻¹ and < 1.7e-05 s⁻¹; in experiment [4], > 2.9e-05 s⁻¹ and < 2.2e-05 s⁻¹. The kon in experiment [3] was > 520000 M⁻¹ s⁻¹ and < 570000 M⁻¹ s⁻¹; in experiment [4] it was > 1.9e+06 M⁻¹ s⁻¹ and < 2.1e+06 M⁻¹ s⁻¹.

B2: Immunoreceptor inhibitory fusion protein 32 (IIFP-32) (Fc fusion)
chain: [human IgG4 Fc with S228P F234A L235A (EU numbers) and a few adjoining residues left out]GGGGGGGSGGGGSGGGGSMSTYNTKTSPSLKCDMCPPGYYKHEDCTSNTKTVCSPCGEGEYTAYNNSLTKCLRCSDCYGENEITTKQCTNTSNTVCECMDGYTKDETIDACIK
In the case of B2, the “EC50 (read off the curve)” value in experiment [2] is approximately 1 nM. Moreover, in experiment [3], the dissociation constant Kd was less than 0.071 nM; the on-rate (kon) was > 730000 M⁻¹ s⁻¹ and < 810000 M⁻¹ s⁻¹. In addition, in experiment [4], the Kd was > 0.005 nM and < 0.008 nM; the off-rate constant (koff) was > 2.5e-05 s⁻¹ and < 1.6e-05 s⁻¹; the kon was > 3.1e+06 M⁻¹ s⁻¹ and < 3.4e+06 M⁻¹ s⁻¹. Moreover, the EC50 in experiment [8] was ≥ 0.5 nM and ≤ 1 nM.
